Experimental data taken from EPA's CvTdb concentration-time database.
This continues a long series; more values of the same kind are listed elsewhere.

What was measured:
Test in all cases: concentration in plasma after dosing
[1] = test system: Rat; conditions: 5 min; dosed: Methyleugenol; 37 mg/kg; oral; Male; F344
[2] = test system: Rat; conditions: dosed: Methyleugenol, 150 mg/kg, oral, Male, F344
[3] = test system: Rat; conditions: dosed: Methyleugenol, 75 mg/kg, oral, Female, F344/N
[4] = test system: Rat; conditions: dosed: Methyleugenol, 150 mg/kg, oral, Male, F344/N
[5] = test system: Rat; conditions: dosed: Methyleugenol, 75 mg/kg, oral, Male, F344
[6] = test system: Rat; conditions: dosed: Methyleugenol, oral

C=CCc1ccc(OC)c(OC)c1 [Methyleugenol]
Conditions | concentration in plasma [ng/mL]
[1] | 820

Conditions | concentration in plasma [ng/mL]
[2], 0.5 h | 2470
[2], 1.5 h | 1170
[3], 1.5 h | 349
[3], 5 h | 74.8
[4], 0.25 h | 641
[4], 24 h | 8.86
[5], 0.25 h | 1090
[5], 4 h | 251

concentration in plasma [ng/mL], [6]
Conditions | 0.25 h | 0.5 h | 1 h | 1.5 h | 2 min | 5 min | 10 min | 20 min
37 mg/kg, Female, F344 | 417 | 305 | 101 | – | – | 1470 | – | –
37 mg/kg, Female, F344/N | – | 229 | 15.2 | 64.3 | – | – | – | –
37 mg/kg, Male, F344 | 543 | 292 | 262 | 56 | – | 546 | – | –
75 mg/kg, Female, F344 | 746 | 911 | 1100 | 222 | – | 2250 | – | –
75 mg/kg, Female, F344/N | – | 722 | 366 | 92.9 | 47.2 | 205 | 841 | 438
75 mg/kg, Male, F344 | 1060 | 1210 | 1680 | 583 | – | 1290 | – | –
75 mg/kg, Male, F344/N | – | 302 | 731 | – | 583 | 2020 | 1730 | 1390
150 mg/kg, Female, F344 | 2140 | 5070 | 619 | 1140 | – | 3540 | – | –
150 mg/kg, Female, F344/N | 2170 | 3040 | 1260 | – | – | 4530 | 4720 | –
150 mg/kg, Male, F344 | 1360 | 1320 | 1820 | – | – | 5760 | – | –
150 mg/kg, Male, F344/N | 985 | 506 | 743 | – | – | 695 | 1640 | –
